# Laboratory results reported in PubChem BioAssay AID686978 (National Center for Advancing Translational Sciences (NCATS), 2013).
# The whole screen tested about 420,000 compounds, of which about 64,000 (15%) were called active. The shares of active, inactive and inconclusive entries below differ from those in the screen. Calls follow the shape of the dose curve; as a rule, active = well fitted inhibition curve with a large enough effect; inconclusive = small, poorly fitted or top-dose-only effect; inactive = flat fitted curve, though single readings scatter. No potency is given beside an inconclusive call; the fits are too rough.
# Test: qHTS for Inhibitors of human tyrosyl-DNA phosphodiesterase 1 (TDP1): qHTS in cells in absence of CPT; also: nearly all actives have a fitted effect of over 55% in size
# Details: DT40 Tdp1-/- hTDP1 cells, no CPT, ATP luminescence, 48 h; activity change, negative = growth inhibition: at 46.2 µM (top of the series)
# Summary of the method: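 Readout: luminescence from CellTiter-Glo after 30 min in the dark at RT. Cells: DT40 Tdp1-/- with stable hTDP1, 400/well. Exposure: compounds alone, ≥48 hr, 37 °C.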
# % is scaled to controls: 0 for no effect and ±100 for the full control effect; potency is read from the fitted curve at half-maximal effect; tags tell the direction and shape of the fitted curve.
SMILES,Potency,"activity change, negative = growth inhibition"
Cc1ccc(N(Cc2ccccc2)C(=O)c2ccc(F)c(S(=O)(=O)N3CCOCC3)c2)cc1,active: 23.1 µM,
CCN(CC)c1ccc(/C=C2\CCC(/C=C(/C#N)C(=O)Nc3ccccc3F)=C2N2CCOCC2)cc1,active: 2.31 µM,
COc1ccc(Cn2c(=S)[nH]c3cc(C(=O)N4CCCCC4)ccc3c2=O)cc1,"inconclusive [inhibitor, single point]",
CCN(CC)CCOC(=O)c1ccc(NC(=O)c2nn(C)c3c2COc2ccccc2-3)cc1,active: 3.26 µM,
O=c1c2cc(N3CCOCC3)ccc2[nH]c(=S)n1CCCN1CCCCC1,,inactive: 3.01%
CCOc1cc(C(=O)Nc2cc3c(cc2N2CCCC2)n(C)c(=O)n3C)cc(OCC)c1OCC,,inactive: 11.8%
COc1ccc(N2CCN(C(=O)CCc3ccccc3OC)CC2)cc1,"inconclusive [inhibitor, single point]",
O=C(CCCN1C(=O)c2cccnc2Oc2ccc(Cl)cc21)NCc1ccccc1F,"inconclusive [inhibitor, single point]",
CCOC(=O)c1c(NC(=O)C2c3ccccc3Oc3ccccc32)sc(C(N)=O)c1C,"inconclusive [inhibitor, single point]",
O=C1c2ccccc2NC2CCCCCN12 (stereo not drawn),,inactive: -2.91%
COc1ccc(Nc2nc(C)nc3c2oc2ccccc23)c(OC)c1,,inactive: -21.9%
CCOC(=O)C1CCCN(Cc2nc(Cc3ccccc3Cl)no2)C1 (stereo not drawn),"inconclusive [inhibitor, single point]",
CCCCCC(=O)N1C[C@H](O)[C@@H](n2cc(C3CC3)nn2)C[C@@H]1c1ccc(C)cc1,"inconclusive [inhibitor, partial curve]",
C/C(=N/NC(=O)CNC(=O)CCc1ccccc1)c1ccc(Cl)c(Cl)c1,"inconclusive [inhibitor, partial curve]",
COc1ccc(NS(=O)(=O)c2cc(NC(=O)c3ccc(F)cc3)ccc2OC)cc1,"inconclusive [inhibitor, single point]",
COc1ccc(-n2c(CNC(=O)c3cccc4ccccc34)nnc2SC)cc1,,inactive: -21.4%
Cc1ccc(NC2=C(CC(=O)O)C(c3ccc(F)cc3)N(c3ccc(C)cc3)C2=O)cc1 (stereo not drawn),"inconclusive [inhibitor, single point]",
CC(C)c1cccc(-c2csc(C(O)c3ccc(F)c(F)c3)n2)c1 (stereo not drawn),"inconclusive [inhibitor, single point]",
CCn1c(SCC(=O)Nc2ccc(C)cc2)nc2nc3c(cc2c1=O)CCCC3,"inconclusive [inhibitor, single point]",
CCOC(=O)c1ccc(NCCc2ccc(OC)c(OC)c2)c(N)c1,"inconclusive [inhibitor, single point]",
Cc1ccccc1SCC(=O)Nc1cc(S(=O)(=O)N2CCOCC2)ccc1N1CCOCC1,"inconclusive [inhibitor, single point]",
CN1/C(=C\C(=O)COC(=O)CN2C(=O)C3CC=CCC3C2=O)C(C)(C)c2ccccc21 (stereo not drawn),active: 18.4 µM,
COCC(=O)N[C@H]1CC[C@@H](CC(=O)NCc2ccccc2OC)O[C@@H]1CO,,inactive: -8.76%
Cc1ccc(Nc2nc(Cl)c(C=O)s2)cc1,active: 23.1 µM,

SMILES,Potency,"activity change, negative = growth inhibition"
N#CCC(=O)N/N=C/c1cn(Cc2ccc3ccccc3c2)c2ccccc12,active: 14.6 µM,
COc1ccc(N2CCN(C(=O)c3ccc(Cl)c(S(=O)(=O)N4CCCC4)c3)CC2)cc1,"inconclusive [inhibitor, single point]",
O=C(O)CC(c1ccc(Cl)cc1)N1Cc2ccccc2C1=O (stereo not drawn),,inactive: -2.31%
CCOC(=O)C1=C(CNCc2ccc(C)cc2)NC(=O)NC1c1cc(C)ccc1C (stereo not drawn),"inconclusive [inhibitor, single point]",
Oc1ccccc1/C=N/n1cnn(Cc2ccccc2Cl)c1=S,"inconclusive [inhibitor, single point]",
Cc1cccc(-c2cccc3nccn23)c1,"inconclusive [inhibitor, single point]",
CC(=O)N1CCC(=NNc2ccnc3cc(Cl)ccc23)CC1,,inactive: -6.26%
CCOc1ccc(S(=O)(=O)NCc2cccnc2)cc1,"inconclusive [inhibitor, partial curve]",
CCC(C)[C@H]1COCCS(=O)(=O)N1Cc1ccc(Br)cc1 (stereo partly drawn),active: 16.4 µM,
CCOC(=O)/C(C#N)=C/Nc1ccsc1C(C)=O,,inactive: -3.22%
CCCc1[nH]nc2c1C(c1ccc(O)cc1OCC)C(C#N)=C(N)O2 (stereo not drawn),"inconclusive [inhibitor, single point]",
N/C(=N\N=C\c1cccc(O)c1)c1nonc1N,"inconclusive [inhibitor, single point]",
CCOc1ccccc1NC(=O)N(Cc1ccc(F)cc1)C1CCN(CC)CC1,"inconclusive [inhibitor, single point]",
CN(CC(=O)Nc1cc(S(=O)(=O)N2CCOCC2)ccc1Cl)C1CCS(=O)(=O)C1 (stereo not drawn),"inconclusive [inhibitor, full curve]",
COC(=O)CSc1nc2cc(C)ccc2cc1C#N,active: 16.4 µM,
COc1ccc(CN2CN(C3CCCC3)CSC2=S)cc1,active: 4.61 µM,
CCNc1nc(NC(C)(C)C)nc(SCC(N)=O)n1,,inactive: -17.8%
CCOc1ccc(NC(=O)c2cccc3c2C(=O)N(CC2CCCO2)C3)cc1 (stereo not drawn),,inactive: -27.1%
O=C(Nc1cccc2nsnc12)c1ccc(-c2cccc(Cl)c2)o1,"inconclusive [inhibitor, single point]",
CCOc1ccc(-c2nonc2NC(=O)c2oc3cc(C)c(C)cc3c2C)cc1OCC,"inconclusive [inhibitor, partial curve]",
Cc1cc(C(F)(F)F)n2ncc(-c3ccccc3)c2n1,,inactive: -3.95%
CCC(C)c1ccc(NC(=O)C2CCCN(c3ncccn3)C2)cc1 (stereo not drawn),active: 18.4 µM,
Cc1ccc(C(=O)N/N=C\c2ccc(Br)o2)o1,,inactive: 2.2%
Cc1ccc(NC(=O)C2CCCN2S(=O)(=O)c2cccc3nsnc23)c(C)c1 (stereo not drawn),"inconclusive [inhibitor, partial curve, poor fit]",
